# Assay results published in PubChem BioAssay AID1508642 (National Center for Advancing Translational Sciences (NCATS), 2021).
# The whole screen tested about 43,000 compounds, of which about 200 (0.47%) were called active. Not shown: some 12% with an inconclusive outcome. Calls follow the shape of the dose curve; as a rule, active = well fitted cell-killing curve with a large enough effect; inconclusive = small, poorly fitted or top-dose-only effect, or effect the other way; inactive = flat fitted curve, though single readings scatter. The list shows a part of the results.
# Assay: Cell viability qHTS assay in S16 Pmp22-F2sN cells; also: nearly all actives have a fitted effect of over 65% in size
# Details: S16 Pmp22-F2sN Schwann cells viability, CellTiter-Glo, 24 h; series mostly up to 57.5 µM; activity change, negative = cytotoxicity: at the top concentration
# Procedure, shortened: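 Used to flag compounds lowering reporter output through toxicity, this quantitative HTS measures ATP-based CellTiter-Glo luminescence in S16 Pmp22-F2sN Schwann cells after 24 h compound exposure at 37C.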
# % is scaled to controls: 0 for no effect and ±100 for the full control effect; potency is read from the fitted curve at half-maximal effect.
SMILES,"activity change, negative = cytotoxicity",Potency
COCCNc1ncnc2c1c(-c1ccccc1)cn2-c1ccc(C)c(Cl)c1,inactive: 19.1%,
NCc1nc2cccnc2n1Cc1ccccc1Cl,inactive: 10.5%,
Cc1ccc(CNC(=O)c2oc3c(c2C)-c2nn(Cc4ccc(Cl)cc4)cc2CC3)cc1,inactive: -5.33%,
Cc1cc(S(=O)(=O)C(CNC(=O)c2ccc(OC(C)C)cc2)c2cccs2)ccc1F (stereo unspecified),inactive: -24.5%,
COc1ccc(-n2ncc3c(NC(C)(C)CO)ncnc32)cc1,inactive: 9.38%,
CCOc1ccc(NC(=O)Cn2c3ncccc3c(=O)n2-c2ccc(CC)cc2)cc1,inactive: -0.829%,
COc1ccc(NC(=O)Cn2c(=O)c(-c3cc(C)ccc3NC(C)=O)nc3ccccc32)c(OC)c1,inactive: 15.9%,
Cc1cc(C)cc(NC(=O)C(=O)NCC(c2ccc3c(c2)OCO3)N2CCN(C)CC2)c1 (stereo unspecified),inactive: -4.48%,
CCCN(Cc1cccs1)C(=O)Nc1ccc(OCC)cc1,inactive: 8.17%,
CCOC(=O)CNc1nc(Oc2ccc(=O)n(C)n2)nc(N(CC)CC)n1,inactive: 13.6%,
COc1ccc(N2CCN(Cc3nc4c(c(=O)[nH]c(=O)n4C)n3Cc3ccc(Cl)cc3)CC2)cc1,inactive: -1.84%,
Cc1cccc(-c2nc(SCC(=O)N3CCc4ccccc43)c3c(=O)n(C)c(=O)n(C)c3n2)c1,inactive: -0.42%,
CCC(=O)Nc1cc(-c2cccc(C)c2)nn1-c1ccccc1,inactive: 11.5%,
COc1cccc2c1ncc1c(-c3ccc(C)cc3)nn(-c3cccc([N+](=O)[O-])c3)c12,inactive: -1.87%,
Cc1cccc(-c2nnc(SCc3cc(=O)c4cccc(Cl)c4[nH]3)n2C)c1,inactive: -24.6%,
CCOc1ccc(-n2c(SCC(=O)N3CCc4ccccc43)nc3c([nH]c4ccccc43)c2=O)cc1,inactive: 12.5%,
COc1ccc(OC)c(NC(=O)c2cc(-c3ccc(Cl)s3)nc3ccccc23)c1,inactive: 3.19%,
O=C(COc1ccccc1)NCc1ccc2c(c1)CCN2C(=O)c1ccc(Cl)cc1,inactive: 3.11%,
COc1ccc(NC(=O)N(CCC(C)C)C(C)c2cccs2)c(OC)c1 (stereo unspecified),inactive: 0.564%,
Cc1cc(=O)[nH]c2nnc(SCC(=O)Nc3ccc(OC(F)(F)F)cc3)n12,inactive: -2.62%,
COc1ccc(C2C(C(N)=O)=C(C)Nc3nc(SCc4ccccc4Cl)nn32)cc1OC (stereo unspecified),inactive: 0.335%,
CCOc1ccc(C(=O)NCc2nc3cccnc3n2Cc2ccc(F)cc2)cc1OCC,inactive: -1.14%,
Cc1sc2c(c1C)c(=O)n(-c1ccc(Cl)cc1)c(=O)n2Cc1cc(=O)n2ccccc2n1,inactive: 0.275%,
CC1CCCN(C(=O)c2cc3c(=O)n(C)c4ccccc4c3s2)C1 (stereo unspecified),inactive: 2.73%,

SMILES,"activity change, negative = cytotoxicity",Potency
O=C(NCc1ccco1)c1ccc(Cn2c(SCc3ccc(F)cc3)nc3cccnc32)cc1,inactive: -17.7%,
CCOC(=O)c1ccccc1NC(=O)CSc1nc2ccncc2[nH]1,inactive: 12.3%,
COc1ccc(C(=O)c2cn(Cc3ccccc3F)c3cc4c(cc3c2=O)OCO4)cc1,inactive: -27.6%,
O=c1cc(-c2ccccc2)n2c(SCc3ccc(Cl)cc3)nnc2[nH]1,inactive: 2.3%,
COc1ccc(CNC(=O)Cn2nnc(-c3ccc(C(F)(F)F)cc3)n2)cc1,inactive: 4.73%,
COc1ccc(-n2c3c(cc(-c4nc(-c5ccc(C)cc5)cs4)c2=O)C(=O)CC(C)(C)C3)cc1,inactive: 13.7%,
CC(C)C(=O)NCC(c1ccc2c(c1)OCO2)N1CCN(c2ccccc2F)CC1 (stereo unspecified),inactive: -18.1%,
COc1ccccc1C(=O)Nc1ccc2oc(-c3cccc(Cl)c3Cl)nc2c1,inactive: -2.2%,
CCOC(=O)c1c(C)oc2ncnc(Nc3ccc(CC)cc3)c12,inactive: 0.598%,
CC1CCN(C(=O)CN2CCSc3ccc(S(=O)(=O)N(C)C)cc32)CC1,inactive: 9.11%,
O=C(C1CCN(S(=O)(=O)c2cccc3nonc23)CC1)N1CCN(c2ccc(F)cc2)CC1,inactive: 0.452%,
CC(=O)c1ccc(NC(=O)C(Cc2ccccc2)NS(=O)(=O)c2ccc3c(c2)CCC(=O)N3)cc1 (stereo unspecified),inactive: 0.101%,
COc1ccc(/C=C/c2nc(-c3ccccc3O)n(-c3ccccc3)n2)cc1OC,inactive: -2.63%,
CCC(=O)N1CCc2cc(S(=O)(=O)NCCC(=O)NC(C)c3ccccc3)ccc21 (stereo unspecified),inactive: -2.94%,
CCOC(=O)CC(NC(=O)c1cc2cc(OC)ccc2oc1=O)c1ccc(OC)cc1 (stereo unspecified),inactive: 2.33%,
Cc1cccc(C(=O)Nc2nnc(S(=O)(=O)N3CCC(C)CC3)s2)c1,inactive: 6.66%,
O=C(CCC(=O)N1CC2CCCN2c2ccccc21)NCc1ccccc1F (stereo unspecified),inactive: -1.68%,
Cc1cccc(OCC(=O)OCc2cc(=O)n3nc(C4CC4)sc3n2)c1,inactive: -13.6%,
O=S(=O)(NCCc1ccc(Cl)cc1)c1ccc(N2CCCCS2(=O)=O)cc1,inactive: 5.34%,
COc1ccc(C2=C(C)C(=O)N(Cc3ccc(C(=O)NCc4ccccc4C)cc3)S2(=O)=O)cc1,inactive: 4.36%,
CCOc1ccc(NC(=O)CCn2c(-c3ccc(F)cc3)cc(C(C)=O)c2C)cc1,inactive: -14.6%,
Cc1ccc(C2C=C(c3ccc(Cl)cc3)Nc3nc(NC(=O)CCC(=O)O)nn32)cc1 (stereo unspecified),inactive: 6.77%,
COc1ccc(NC(=O)Nc2nnc(SCC(=O)Nc3cccc(C)c3C)s2)cc1,inactive: 1.4%,
CCn1cnc2c(=O)oc3ccc(S(=O)(=O)N4CCN(c5cc(C)ccc5C)CC4)cc3c21,inactive: 1.46%,

SMILES,"activity change, negative = cytotoxicity",Potency
CCC(C)Cn1c(COc2ccc(OC)cc2)nc2ccccc21 (stereo unspecified),inactive: 4.42%,
O=C(CSc1nnc(-c2ccccc2)c(-c2ccccc2)n1)Nc1ccccc1Cl,inactive: -11.9%,
CCCOc1ccc(C(=O)Nc2cc3nn(-c4ccc(CC)cc4)nc3cc2C)cc1,inactive: 7.8%,
COc1ccccc1OCCCn1c(-c2ccc(Cl)cc2)nc2ccccc2c1=O,inactive: -6.08%,
CCOC(=O)c1ccc(NC(=O)Nc2cccc(OCc3cc(=O)n4ccc(C)cc4n3)c2)cc1,inactive: 18.4%,
COc1ccc(NC(=O)CCc2nc3cccnc3n2Cc2cccs2)c(OC)c1,inactive: 7.06%,
O=C(NCCn1cc(SCc2ccc(C(F)(F)F)cc2)c2ccccc21)c1ccccc1F,inactive: 2.91%,
Cc1ccc(CN2C(=O)SC(Nc3ccccc3)C2=O)cc1 (stereo unspecified),inactive: 3.6%,
O=C(NCc1ccc(F)cc1)c1ccc2c(c1)N(Cc1ccc(F)cc1Cl)C(=O)CS2,inactive: 17.1%,
CCCSc1ncc(Cl)c(C(=O)Nc2ccc(OC)cc2OC)n1,inactive: 1.12%,
Cc1ccccc1C(=O)NCC(c1ccc(N(C)C)cc1)N1CCCC1 (stereo unspecified),inactive: 7.03%,
COc1ccc(S(=O)(=O)N(Cc2nc(-c3ccccc3)no2)C2CCCCC2)cc1,inactive: -6.29%,
COc1cc(C2CC(=O)N(c3ccc(C)c(Cl)c3)C3=C2C(=O)OC3)cc(OC)c1OC (stereo unspecified),inactive: 4.93%,
O=C(CCS(=O)(=O)c1ccc(Br)s1)Nc1c(F)cccc1F,inactive: 3.98%,
Cc1cccc(-c2noc(-c3cccnc3NCc3ccccc3Cl)n2)c1,inactive: 11.5%,
CNC(=O)C1CCC(Cn2c(=O)c3sccc3n(CC(=O)N3CCCCC3C)c2=O)CC1 (stereo unspecified),inactive: -12%,
COc1cccc(-c2cc(C(F)(F)F)n3nc(-c4ccc(C)cc4)cc3n2)c1,inactive: 6.06%,
CNS(=O)(=O)c1ccc(NC(=O)c2nc3nc(C)cc(C(F)F)n3n2)cc1,inactive: 5.4%,
CCN(c1ccccc1)S(=O)(=O)c1ccc(NC(=O)c2cc(=O)c3c(C)cc(C)cc3o2)cc1,inactive: -0.905%,
O=C1CCc2cc(S(=O)(=O)NC(C(=O)Nc3ccc(F)cc3)c3ccccc3)ccc2N1 (stereo unspecified),inactive: -29.7%,
CCc1ccccc1N1CC(c2nc3ccccc3n2CCCCOc2ccccc2OC)CC1=O (stereo unspecified),inactive: -16.4%,
CC(C)NC(=O)Cc1csc2nc(-c3ccccc3)cn12,inactive: -8.56%,
CCOc1ccc(NS(=O)(=O)c2ccc3[nH]cc(C(=O)N4CCCC4)c(=O)c3c2)cc1,inactive: 3.71%,
CC(C)c1cnc2c(c1SCc1ccc([N+](=O)[O-])cc1)c(=O)n(C)c(=O)n2C,inactive: 4.44%,

SMILES,"activity change, negative = cytotoxicity",Potency
O=c1n(Cc2ccccc2)nc2n1-c1ccccc1OC2,inactive: 5.07%,
COc1cc2c(cc1OC)C(COc1ccc(F)cc1)N(C(=O)C(C)C)CC2 (stereo unspecified),inactive: 0.0487%,
Cc1nc2nc(CNC(=O)c3cccc(F)c3)nn2c(C)c1CCC(=O)Nc1ccc(F)cc1,inactive: 0.72%,
COc1ccc(OC)c(NC(=O)c2ccc3nc(C(C)C)oc3c2)c1,inactive: 4.15%,
Cc1cccc(N2CCN(S(=O)(=O)c3nnc(NC(=O)c4ccc(Cl)cc4)s3)CC2)c1,inactive: 2.21%,
O=C1CC(c2nnc(Cc3ccc(F)cc3)o2)CN1c1ccccc1 (stereo unspecified),inactive: -3.14%,
Cc1cccc(NC(=O)CSc2cn(CC(=O)N3CCC(C)CC3)c3ccccc23)c1C,inactive: -1.08%,
COc1ccccc1CNC(=O)c1cc(S(=O)(=O)N2CCCCCC2)cn1C,inactive: 12.2%,
Fc1ccccc1-n1ncc2c1ncn1nc(COc3ccc(Cl)cc3)nc21,inactive: -6.17%,
CCc1cccc(NC(=O)c2cc(S(=O)(=O)N3CCCCCC3)cn2C)c1,inactive: -7.37%,
CC(C)(C)C(=O)NC1CC(=O)N(c2ccc3c(c2)OCCO3)C1 (stereo unspecified),inactive: 2.35%,
COc1ccccc1NC(=O)c1sc2nc(C)c(C(=O)Nc3ccc(Cl)cc3)c(-c3ccc(Br)cc3)c2c1N,,active: 14.1 µM
Cc1c(C2=CCN(S(=O)(=O)c3ccc(Cl)cc3)CC2)c2ccccc2n1CC(=O)N1CCCC1,inactive: -4.17%,
CCc1ccc2oc(C(=O)Nc3nc(-c4ccc(F)cc4)ns3)c(C)c2c1,inactive: 0.196%,
Cc1cc2c(n1-c1ccc(C(=O)NCCc3ccc(Cl)cc3)cc1)CCC(C)C2 (stereo unspecified),inactive: 0.347%,
CCC1CCCCN1C(=O)CSc1n[nH]c(-c2ccccc2)n1 (stereo unspecified),inactive: 10.1%,
COc1ccc(N(Cc2nnc3n2CCCCC3)C(=O)Nc2ccc(Cl)cc2)cc1Cl,inactive: 0.456%,
CC(=O)Nc1ccc(Nc2nc3ccc(Cl)cc3n3cnnc23)cc1,inactive: 14.6%,
CNC(=O)c1ccc(-c2nc(CN3CCc4ccccc43)c(C)o2)cc1,inactive: 4.84%,
Cc1cccc(OCC(=O)Nc2ccc(OCc3cc(=O)n4cc(C)ccc4n3)cc2)c1,inactive: 7.19%,
Cc1c(Cl)cccc1NC(=O)C(C)n1nc(C)c2c(C)n(-c3ccccc3)nc2c1=O (stereo unspecified),inactive: -1.9%,
O=C(CC1(O)C(=O)N(CCc2ccccc2)c2ccc(Br)cc21)c1ccccc1 (stereo unspecified),inactive: -15.1%,
Cc1ccc(-n2c3nc(=O)n(C)c(=O)c-3cc3ccccc32)c(C)c1,inactive: 5.46%,
CCC(=O)N1CCc2cc(Br)cc(S(=O)(=O)N3CCCC(C(=O)NCc4ccc(C)cc4)C3)c21 (stereo unspecified),inactive: 2.74%,
